Data from patent US4011332A, “Hemorrhagic-lesion producing and anticoagulant-containing compositions and their use” (priority 1974, dated 1977).
Where two headings read alike, the source gives them in different places. The name of at least one read-out is uncertain.

Test system: Sprague-Dawley rats
Type: in vivo
Conditions: single oral dose, 10 days
Excerpt: Note the number of animals which die within 10 days of the respective administrations.

[1] = component (b) 1.0 mg/kg + 2 mg/kg 4-hydroxy-2-oxo-3-(1-phenylpropyl)-2H-chromene
[2] = component (b) 2.0 mg/kg + 2 mg/kg 4-hydroxy-2-oxo-3-(1-phenylpropyl)-2H-chromene
[3] = component (b) 5.0 mg/kg + 2 mg/kg 4-hydroxy-2-oxo-3-(1-phenylpropyl)-2H-chromene
[4] = component (b) 10.0 mg/kg + 2 mg/kg 4-hydroxy-2-oxo-3-(1-phenylpropyl)-2H-chromene
[5] = component (b) 0.05 mg/kg + 2 mg/kg 4-hydroxy-2-oxo-3-(1-phenylpropyl)-2H-chromene
[6] = component (b) 0.1 mg/kg + 2 mg/kg 4-hydroxy-2-oxo-3-(1-phenylpropyl)-2H-chromene
[7] = component (b) 0.5 mg/kg + 2 mg/kg 4-hydroxy-2-oxo-3-(1-phenylpropyl)-2H-chromene
[8] = component (b) 1.5 mg/kg + 2 mg/kg 4-hydroxy-2-oxo-3-(1-phenylpropyl)-2H-chromene
[9] = component (b) 0.2 mg/kg + 2 mg/kg 4-hydroxy-2-oxo-3-(1-phenylpropyl)-2H-chromene
[10] = component (b) 7.5 mg/kg + 2 mg/kg 4-hydroxy-2-oxo-3-(1-phenylpropyl)-2H-chromene
[11] = component (b) 20.0 mg/kg + 2 mg/kg 4-hydroxy-2-oxo-3-(1-phenylpropyl)-2H-chromene

Compound | % of Animals which Died [1] [%] | % of Animals which Died [2] [%] | % of Animals which Died [3] [%] | % of Animals which Died [4] [%] | % of Animals which Died [7] [%] | also measured
CC(C(=O)O)c1ccc(C2CCCCC2)c(Cl)c1 (single isomer, unassigned) [N, d(+)-3-chloro-4-cyclohexyl-α-methyl-phenylacetic acid] | 5 | 63 | 95 | 100 | – | –
O=C(O)Cc1c(-c2cccs2)nn(-c2ccccc2)c1-c1cccs1 [A, 1-phenyl-3,5-di-(2-thienyl)-4-pyrazole acetic acid] | 55 | 98 | – | – | 30 | % of Animals which Died (component (b) 0.01 mg/kg + 2 mg/kg 4-hydroxy-2-oxo-3-(1-phenylpropyl)-2H-chromene): 13%; % of Animals which Died [5]: 25%; % of Animals which Died [6]: 27%; % of Animals which Died [8]: 95%
O=C(O)Cc1c(-c2ccc(Cl)cc2)nn(-c2ccccc2)c1-c1ccccc1 [B, 1,5-diphenyl-3-(p-chlorophenyl)-4-pyrazole acetic acid] | 81 | 100 | – | – | 40 | % of Animals which Died [5]: 8%; % of Animals which Died [6]: 15%; % of Animals which Died [9]: 28%; % of Animals which Died [8]: 95%
O=C(O)Cc1c(-c2ccccc2)nn(-c2ccccc2)c1-c1ccccc1 [C, 1,3,5-triphenyl-4-pyrazole acetic acid] | 27 | 87 | 100 | – | 7 | % of Animals which Died (component (b) 3.0 mg/kg + 2 mg/kg 4-hydroxy-2-oxo-3-(1-phenylpropyl)-2H-chromene): 100%
O=C(O)Cc1c(-c2cccs2)nn(-c2ccc(Cl)cc2)c1-c1cccs1 [D, 1-(p-chlorophenyl)-3,5-di-(2-thienyl)-4-pyrazole acetic acid] | – | 70 | 100 | – | 45 | % of Animals which Died [6]: 0%; % of Animals which Died [9]: 10%
COc1ccc2c(c1)c(CC(=O)O)c(C)n2C(=O)c1ccc(Cl)cc1 [E, reference compound] | 3 | 22 | 52 | – | – | % of Animals which Died [10]: 100%
O=C(O)Cc1c(C2CCCCC2)nn(-c2ccccc2)c1-c1ccccc1 [F, 3-cyclohexyl-1,5-diphenyl-4-pyrazole acetic acid] | 15 | 13 | 95 | 100 | 0 | % of Animals which Died (component (b) 3.5 mg/kg + 2 mg/kg 4-hydroxy-2-oxo-3-(1-phenylpropyl)-2H-chromene): 60%; % of Animals which Died [10]: 100%
COc1ccc(-c2c(CC(=O)O)c(-c3ccccc3)nn2-c2ccccc2)cc1 [G, 1,3-diphenyl-5-(p-methoxyphenyl)-4-pyrazole acetic acid] | – | 3 | 25 | 97 | – | % of Animals which Died [10]: 70%
COc1ccc(-n2nc(-c3ccccc3)c(CC(=O)O)c2-c2ccccc2)cc1 [H, 3,5-diphenyl-1-(p-methoxyphenyl)-4-pyrazole acetic acid] | – | 20 | 40 | 100 | – | –
CN1C(C(=O)Nc2nccs2)=C(O)c2ccccc2S1(=O)=O [L, n-(2-thiazolyl)-4-hydroxy-2-methyl-2H-1,2-benzothiazine-3-carboxamide-1,1-dioxide] | – | 35 | 60 | – | – | % of Animals which Died [11]: 100%
O=C(O)Cc1c(-c2cccs2)nn(-c2ccccc2Cl)c1-c1cccs1 [M, 1(o-chlorophenyl)-3,5-(2-thienyl)-4-pyrazole acetic acid] | – | 10 | 25 | 80 | – | –
O=C(O)Cc1c(-c2ccco2)nn(-c2ccccc2)c1-c1ccco1 [O, 1-phenyl-3,5-di-(2-furyl)-4-pyrazole acetic acid] | – | – | 7 | 17 | – | % of Animals which Died [11]: 25%; % of Animals which Died (component (b) 50.0 mg/kg + 2 mg/kg 4-hydroxy-2-oxo-3-(1-phenylpropyl)-2H-chromene): 100%
